# Test results from the supplement of paper PMC8728848.
# The list shows a part of the results.
# What was measured:
# Experiment in all cases: glycan array binding signal (z-score within array); higher = stronger binding
# Conditions in all cases: glycan notation: IUPAC condensed, linker removed
# [1] = biological target: Fuc(a1-2)[Gal(a1-3)]Gal(b1-4)GlcNAc(b1-2)Man(a1-3)[Fuc(a1-2)[Gal(a1-3)]Gal(b1-4)GlcNAc(b1-2)Man(a1-6)]Man(b1-4)GlcNAc(b1-4)[Fuc(a1-6)]GlcNAc
# Procedure, shortened: (§1)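 Glycan array binding is given as a within-array Z-score, which can be read as non-binding when negative. The arrays, 3228 of them, came from the Consortium for Functional Glycomics database and were retained only where the protein sequence was available. Z-scores were averaged across arrays of the same protein sequence at different concentrations or buffers and across linkers.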
# [2] = biological target: Fuc(a1-2)[Gal(a1-3)]Gal(b1-4)GlcNAc(b1-3)GalNAc
# Procedure, shortened: as §1
# [3] = biological target: Fuc(a1-2)[Gal(a1-3)]Gal(b1-4)GlcNAc(b1-3)[Fuc(a1-2)[Gal(a1-3)]Gal(b1-4)GlcNAc(b1-6)]GalNAc
# Procedure, shortened: as §1
# [4] = biological target: Fuc(a1-2)[Gal(a1-3)]Gal(b1-4)GlcNAc(b1-6)GalNAc
# Procedure, shortened: as §1
# [5] = biological target: Fuc(a1-2)[Gal(a1-3)]Gal(b1-4)[Fuc(a1-3)]Glc
# Procedure, shortened: as §1
# [6] = biological target: Fuc(a1-2)[Gal(a1-3)]Gal(b1-4)[Fuc(a1-3)]GlcNAc
# Procedure, shortened: as §1
# [7] = biological target: Fuc(a1-2)[Gal(a1-3)]Gal(b1-4)[Fuc(a1-3)]GlcNAc(b1-3)GalNAc
# Procedure, shortened: as §1
# [8] = biological target: Fuc(a1-2)[Gal(a1-4)]Gal(b1-4)GlcNAc
# Procedure, shortened: as §1
# [9] = biological target: Fuc(a1-2)[GalNAc(a1-3)]Gal
# Procedure, shortened: as §1
# [10] = biological target: Fuc(a1-2)[GalNAc(a1-3)]Gal(b1-3)GalNAc(a1-3)[Fuc(a1-2)]Gal(b1-4)GlcNAc
# Procedure, shortened: as §1
# [11] = biological target: Fuc(a1-2)[GalNAc(a1-3)]Gal(b1-3)GalNAc(b1-3)Gal(a1-4)Gal(b1-4)Glc
# Procedure, shortened: as §1
# [12] = biological target: Fuc(a1-2)[GalNAc(a1-3)]Gal(b1-3)GlcNAc
# Procedure, shortened: as §1
# [13] = biological target: Fuc(a1-2)[GalNAc(a1-3)]Gal(b1-3)GlcNAc(b1-2)Man(a1-3)[Fuc(a1-2)[GalNAc(a1-3)]Gal(b1-3)GlcNAc(b1-2)Man(a1-6)]Man(b1-4)GlcNAc(b1-4)GlcNAc
# Procedure, shortened: as §1
# [14] = biological target: Fuc(a1-2)[GalNAc(a1-3)]Gal(b1-3)GlcNAc(b1-2)Man(a1-3)[Fuc(a1-2)[GalNAc(a1-3)]Gal(b1-3)GlcNAc(b1-2)Man(a1-6)]Man(b1-4)GlcNAc(b1-4)[Fuc(a1-6)]GlcNAc
# Procedure, shortened: as §1
# [15] = biological target: Fuc(a1-2)[GalNAc(a1-3)]Gal(b1-3)GlcNAc(b1-3)GalNAc
# Procedure, shortened: as §1
# [16] = biological target: Fuc(a1-2)[GalNAc(a1-3)]Gal(b1-3)GlcNAc(b1-6)GalNAc
# Procedure, shortened: as §1
# [17] = biological target: Fuc(a1-2)[GalNAc(a1-3)]Gal(b1-4)Glc
# Procedure, shortened: as §1
# [18] = biological target: Fuc(a1-2)[GalNAc(a1-3)]Gal(b1-4)GlcNAc
# Procedure, shortened: as §1
# [19] = biological target: Fuc(a1-2)[GalNAc(a1-3)]Gal(b1-4)GlcNAc(b1-2)Man
# Procedure, shortened: as §1
# [20] = biological target: Fuc(a1-2)[GalNAc(a1-3)]Gal(b1-4)GlcNAc(b1-2)Man(a1-3)[Fuc(a1-2)[GalNAc(a1-3)]Gal(b1-4)GlcNAc(b1-2)Man(a1-6)]Man(b1-4)GlcNAc(b1-4)GlcNAc
# Procedure, shortened: as §1
# [21] = biological target: Fuc(a1-2)[GalNAc(a1-3)]Gal(b1-4)GlcNAc(b1-2)Man(a1-3)[Fuc(a1-2)[GalNAc(a1-3)]Gal(b1-4)GlcNAc(b1-2)Man(a1-6)]Man(b1-4)GlcNAc(b1-4)[Fuc(a1-6)]GlcNAc
# Procedure, shortened: as §1
# [22] = biological target: Fuc(a1-2)[GalNAc(a1-3)]Gal(b1-4)GlcNAc(b1-3)Gal(b1-4)GlcNAc
# Procedure, shortened: as §1
# [23] = biological target: Fuc(a1-2)[GalNAc(a1-3)]Gal(b1-4)GlcNAc(b1-3)Gal(b1-4)GlcNAc(b1-3)Gal(b1-4)GlcNAc
# Procedure, shortened: as §1
# [24] = biological target: Fuc(a1-2)[GalNAc(a1-3)]Gal(b1-4)GlcNAc(b1-3)GalNAc
# Procedure, shortened: as §1
# [25] = biological target: Fuc(a1-2)[GalNAc(a1-3)]Gal(b1-4)GlcNAc(b1-3)[Fuc(a1-2)[GalNAc(a1-3)]Gal(b1-4)GlcNAc(b1-6)]GalNAc
# Procedure, shortened: as §1
# [26] = biological target: Fuc(a1-2)[GalNAc(a1-3)]Gal(b1-4)GlcNAc(b1-6)GalNAc
# Procedure, shortened: as §1
# [27] = biological target: Fuc(a1-2)[GalNAc(a1-3)]Gal(b1-4)[Fuc(a1-3)]GlcNAc
# Procedure, shortened: as §1
# [28] = biological target: Fuc(a1-2)[GalNAc(a1-3)]Gal(b1-4)[Fuc(a1-3)]GlcNAc(b1-3)GalNAc
# Procedure, shortened: as §1
# [29] = biological target: Fuc(a1-2)[GalNAc(a1-4)]Gal(b1-4)GlcNAc
# Procedure, shortened: as §1
# [30] = biological target: Fuc(a1-2)[GalNAc(b1-3)]Gal
# Procedure, shortened: as §1
binder,measurement,setting,value
Clone730PsrP (Streptococcus pneumoniae) (protein) MDHHHHHHHHHHASENLYFQGAMVVGSQTAAATEATAKKVEEDRKKPASDYVASVTNVNLQSYAKRRKRSVDSIEQLLASIKNAAVFSGNTIVNGAPAINASLNIAKSETKVYTGEGVDSVYRVPIYYKLKVTNDGSKLTFTYTVTYVNPKTNDLGNISSMRPGYSIYNSGTSTQTMLTLGSDLGKPSGVKNYITDKNGRQVLSYNTSTMTTQGSGYTWGNGAQMNGFFAKKGYGLTSSWTVPITGTDTSFTFTPYAARTDRIGINYFNGGGKVVESSTT,glycan array binding signal (z-score),[1],-0.453
same,glycan array binding signal (z-score),[2],-0.574
same,glycan array binding signal (z-score),[3],0.84
same,glycan array binding signal (z-score),[4],-0.367
same,glycan array binding signal (z-score),[5],-0.546
same,glycan array binding signal (z-score),[6],0.179
same,glycan array binding signal (z-score),[7],-0.513
same,glycan array binding signal (z-score),[8],1.7
same,glycan array binding signal (z-score),[9],-0.384
same,glycan array binding signal (z-score),[10],-0.462
same,glycan array binding signal (z-score),[11],0.106
same,glycan array binding signal (z-score),[12],1.49
same,glycan array binding signal (z-score),[13],-0.426
same,glycan array binding signal (z-score),[14],-0.573
same,glycan array binding signal (z-score),[15],0.137
same,glycan array binding signal (z-score),[16],-0.628
same,glycan array binding signal (z-score),[17],-0.55
same,glycan array binding signal (z-score),[18],-0.464
same,glycan array binding signal (z-score),[19],-0.091
same,glycan array binding signal (z-score),[20],-0.234
same,glycan array binding signal (z-score),[21],2.17
same,glycan array binding signal (z-score),[22],-0.179
same,glycan array binding signal (z-score),[23],0.462
same,glycan array binding signal (z-score),[24],-0.167
same,glycan array binding signal (z-score),[25],-0.331
same,glycan array binding signal (z-score),[26],-0.529
same,glycan array binding signal (z-score),[27],0.983
same,glycan array binding signal (z-score),[28],0.059
same,glycan array binding signal (z-score),[29],-0.48
same,glycan array binding signal (z-score),[30],-0.3
